Laboratory results taken from the supplement of paper PMC3334620.
In all, about 33,000 sequences were measured (“E-score (-0.5 to 0.5)”: median about -0.016, highest 2% from about 0.32 on). This is one part of the list.

target: T1, Stp1 (UniProt B3LFK1); assay: PBM E-score (8-mer binding enrichment) (E-score (-0.5 to 0.5)); higher = stronger / more preferred TF binding; most listed sequences are background and not binding sites; settings: protein concentration: 200 nM; construct: GST-full length
T1 sequence: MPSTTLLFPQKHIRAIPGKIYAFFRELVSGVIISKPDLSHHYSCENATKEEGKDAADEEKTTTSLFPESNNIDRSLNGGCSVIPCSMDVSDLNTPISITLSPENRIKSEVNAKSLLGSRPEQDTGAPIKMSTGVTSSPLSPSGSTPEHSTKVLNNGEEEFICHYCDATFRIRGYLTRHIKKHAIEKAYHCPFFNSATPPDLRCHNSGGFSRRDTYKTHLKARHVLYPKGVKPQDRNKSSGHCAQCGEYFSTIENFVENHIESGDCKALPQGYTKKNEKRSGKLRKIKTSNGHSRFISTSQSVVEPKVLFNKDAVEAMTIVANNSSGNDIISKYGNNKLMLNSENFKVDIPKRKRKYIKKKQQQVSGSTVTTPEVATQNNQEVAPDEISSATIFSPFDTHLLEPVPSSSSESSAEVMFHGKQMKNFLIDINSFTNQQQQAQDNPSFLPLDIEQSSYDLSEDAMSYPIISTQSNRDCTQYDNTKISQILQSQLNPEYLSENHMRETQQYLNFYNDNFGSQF
Outline: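 For each ungapped eight-base word taken together with its reverse complement, the Universal PBM Analysis Suite assigned an E-score. Binding data came from GST-tagged yeast transcription factors, applied at about 100-200 nM, on universal all-10-mer Agilent arrays made double-stranded by primer extension. Fluorescent anti-GST marked bound protein, and scans were normalised with masliner.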

Row | Sequence | PBM E-score
1 | GGGTATCA | -0.0694
2 | ATCCGATA | -0.0419
3 | AAGTACAA | 0.0248
4 | CACGACAA | -0.015
5 | CTCCCCTC | -0.3
6 | AGGTTTAC | -0.199
7 | AGAGGACT | -0.228
8 | AGTAGTCA | -0.0191
9 | CGGATCCA | 0.052
10 | GCTGAAAA | 0.122
11 | AACACCAC | -0.012
12 | CTATGAAC | 0.0764
13 | GAAGGCTA | -0.0845
14 | ACTCAGAA | 0.0655
15 | AGGTTAAT | -0.0149
16 | CAGACCTG | -0.116
17 | CTTATCTC | -0.0925
18 | AACGAGGG | -0.0424
19 | AAAGCAGT | -0.0168
20 | GAGACAAC | -0.0599
21 | CGGAATGC | 0.0255
22 | ACGTCACG | -0.0529
23 | AATGGCCC | -0.12
24 | AGCTTACC | -0.13
25 | GAGGTGAC | 0.0292

Row | Sequence | PBM E-score
26 | CCATCATA | -0.0792
27 | GAGTGTCC | -0.0383
28 | AATAACCT | -0.0883
29 | AGGCATAC | 0.0863
30 | ACATTCAA | 0.00945
31 | GGTCGTAA | -0.109
32 | ACTCTCTG | -0.177
33 | ATTTGTTC | 0.177
34 | CGCACGCC | 0.292
35 | AGGATTAG | -0.0944
36 | AAGGTGCG | -0.162
37 | GCTGTACC | -0.139
38 | CCGGGACA | -0.109
39 | GTTACGGA | -0.124
40 | AAGCTACC | -0.117
41 | TACTCGCA | -0.0309
42 | ACACTCAA | 0.219
43 | CGCACCGC | 0.0985
44 | ATCGAGGA | -0.017
45 | ATGTATTA | 0.0692
46 | GACATCGA | -0.00828
47 | GGCCCGAC | -0.192
48 | AACTCTTA | 0.0216
49 | CGCTCACC | -0.0817
50 | GCTATACC | -0.103

Row | Sequence | PBM E-score
51 | AGCACCTG | -0.0582
52 | AAACAAGC | 0.105
53 | AACGGTCC | -0.0166
54 | ACCTGCCC | -0.199
55 | AATGCCAA | -0.037
56 | ACAGATGC | -0.0392
57 | AGTGACTA | -0.0544
58 | AACAAACC | 0.172
59 | AACCGACT | -0.0233
60 | CGACTGCA | -0.119
61 | CATCTCCC | -0.182
62 | CGTCCCAA | -0.021
63 | CGCCGCGA | 0.379
64 | GTTAACTA | 0.0936
65 | CTCACCCC | 0.0927
66 | TCAGTAAA | 0.191
67 | CCTCATAC | -0.0134
68 | GCAAAAAC | 0.142
69 | AGGCCATG | -0.0677
70 | ACCTATAG | -0.248
71 | CTCAAGAC | -0.0456
72 | GTTGAAAA | 0.131
73 | AAGGCGAG | -0.158
74 | AAAATTAC | 0.104
75 | CAGTTCAG | -0.0933

Row | Sequence | PBM E-score
76 | ATGGCCAC | -0.113
77 | TAAGAGGA | 0.0314
78 | ATGAAAAT | 0.199
79 | CTGTAAGA | 0.0896
80 | CCGTCTAA | 0.0555
81 | TAACCTAA | 0.0714
82 | CTCACCAC | -0.0613
83 | CTGAAGAA | -0.149
84 | CAATCCAC | -0.128
85 | TAAGCTGA | 0.0192
86 | ACCGTGTA | 0.0338
87 | AACCGGTA | -0.222
88 | GTATGCAA | 0.161
89 | GAATTGGC | -0.0522
90 | ATAAACAT | 0.222
91 | CCTTGGGC | -0.00209
92 | AGCTTTAG | -0.049
93 | GGGAGAGA | -0.449
94 | CTCTAGAA | -0.0697
95 | GTACATCA | 0.125
96 | TAAATTCA | -0.0181
97 | CCACCAGA | 0.0268
98 | AGCTGCCT | -0.112
99 | ATCGAATA | 0.0852
100 | TCATATAA | 0.227

Row | Sequence | PBM E-score
101 | CGCCCTAC | 0.253
102 | AACAACTC | -0.053
103 | GCGTGTAA | 0.0838
104 | CGACGTAC | -0.0502
105 | CGTAGACG | 0.0087
106 | GTCGAAGA | -0.132
107 | ACGGTCCG | -0.0103
108 | GGGCACAA | 0.202
109 | GGCAAACA | 0.194
110 | CCAGATCC | -0.295
111 | CGTGCAAA | 0.177
112 | GAACGTGC | 0.0574
113 | ACGTCGAG | -0.244
114 | GAGAGTGC | -0.166
115 | ACTAATTG | 0.0864
116 | ATATGAGA | 0.0204
117 | CCCATTAG | -0.364
118 | ACCCAACA | -0.133
119 | CTTGATTC | 0.0372
120 | AAGGAGAA | -0.131
121 | ATACTCTG | -0.00108
122 | ATAGTTGA | -0.0464
123 | CCGGATGC | -0.106
124 | AGAGCTAA | -0.187
125 | ACGAAGAG | -0.0307

Row | Sequence | PBM E-score
126 | CAGGCAGC | -0.23
127 | AGATCATC | -0.13
128 | ATTTATAA | 0.195
129 | ACGCTACT | -0.168
130 | ACAGAAGG | -0.081
131 | CTTGAGTA | -0.00435
132 | CTAGTAAG | 0.0404
133 | ATCTAATC | 0.0773
134 | CATCGGCC | -0.103
135 | CATATTGC | 0.0265
136 | GAAGCAGC | -0.167
137 | AGGTAGCC | -0.177
138 | ACAGCCTG | -0.117
139 | CGGCACAC | 0.381
140 | CATGATGG | -0.221
141 | AGTCAGAA | -0.15
142 | CTGGCAAC | -0.177
143 | TATCTAGA | 0.039
144 | GGTAGCAA | -0.127
145 | AGTTAGAC | 0.124
146 | ATAGATCA | 0.0678
147 | ATGCAAGC | -0.0241
148 | ATTGTTGA | 0.218
149 | AAGTAGTG | -0.0692
150 | ATAACACA | 0.0258

Row | Sequence | PBM E-score
151 | TAATAGTA | 0.24
152 | ATCGGAAG | 0.00586
153 | CCTAGGAG | -0.119
154 | GGGCGGAA | -0.0696
155 | ACATCCAA | 0.00763
156 | GTCCTCCA | -0.0507
157 | GTTTATTA | 0.0702
158 | AACGGACT | -0.113
159 | ACGGCACA | 0.479
160 | ACCAAGCG | -0.126
161 | CCCTAAAA | -0.166
162 | GTCGGCCA | -0.144
163 | GGATGAAC | -0.0737
164 | CCGATCAA | -0.19
165 | AGTAACAC | -0.00067
166 | CTCGGGAA | -0.0534
167 | CTAGCGCA | -0.303
168 | CCAATTAG | 0.0654
169 | ATGGGACC | -0.26
170 | CCAGACTA | -0.205
171 | TACATGTA | -0.101
172 | CCCCCCAC | -0.271
